Experimental data: the supplement of paper PMC10126150
Values marked as one replicate rest on one cluster of the flow cell; about a third of the high ones do not repeat.

System: ATP
Assay: switch fluorescence ratio, 500 uM ATP over buffer (Cy3 cluster intensity, sum of 5 cycles each) (fold (ratio)); higher = stronger signal-on switching upon ATP binding; sequences stand for … in TCGTCGGCAGCGTCAGATGTGTATAAGAGACAGTTTTTTTTTTTTTTTTTTTTTTTTT…TC
Conditions: aptamer strand: ATP DNA aptamer (quencher-CACCTGGGGGAGTATTGCGGAGGAAGG + anchor), 100 nM annealed; ATP concentration: 500 uM; one replicate
How it was run: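 Clusters carrying Cy3-labelled switching strands on a modified Illumina MiSeq flow-cell were annealed to 100 nM quencher-labelled ATP aptamer and imaged in selection buffer. They were imaged again after 15 min with 500 uM ATP at 22 °C, over five buffer/ATP cycles with NaOH stripping and re-annealing in between. For each cluster, the fluorescence ratio is the summed Cy3 intensity of the target cycles divided by that of the buffer cycles, averaged per switch-domain sequence. Clusters outside 100-1000 RFU were left out.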
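Also: ATP exposure 15 min at 22 °C before imaging.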

Row | Sequence | switch fluorescence ratio
1 | GGGACATGAC | 1.08
2 | GGCGAATGTA | 0.944
3 | CGTAAGGCGA | 1.04
4 | CGTTCAATCG | 0.991
5 | TTATGAAAAG | 0.976
6 | TACGTTTGTG | 0.947
7 | CCGTCATCTA | 1.11
8 | TACCCCGCT | 1.25
9 | GATTGCATTG | 0.958
10 | AATAAGAGCC | 1.02
11 | AGATTAGAAC | 0.948
12 | ACGGGGCAGG | 1.07
13 | CGTGTGCGGG | 0.975
14 | AACGTGTAA | 1.01
15 | ATACGCTGT | 1.06
16 | ATCGCGTGCA | 0.994
17 | ATGTCGTTGT | 0.991
18 | GATTAACAGG | 1.07
19 | CAGTCTCTCT | 0.953
20 | TTGAAACGCG | 0.988
21 | GTGTACTATC | 1
22 | TTGCGGTGCA | 1
23 | CTTCGAAGCC | 1.2
24 | CTGGTTATCT | 0.978
25 | GGAGAACCGG | 1.02
26 | GTCTATAGAA | 1

Row | Sequence | switch fluorescence ratio
27 | TCGTGGTGAA | 0.974
28 | TAGATGTC | 1.02
29 | TATAATGGGT | 0.992
30 | CGTAGAAGAA | 1.04
31 | GCCTGGGTTT | 0.96
32 | CATAAGTAAA | 0.996
33 | CCCGATTTGC | 1.13
34 | ATAATTTGCA | 0.974
35 | ATTCATACAG | 1.04
36 | ATCAAATACG | 1.04
37 | TTCATCAA | 1.01
38 | ATTCGATGTT | 0.998
39 | TACAGCCCAT | 1.05
40 | TTACAATAGG | 1.08
41 | ATTCGTCGTG | 0.992
42 | CTCTCCGAAT | 2.95
43 | AGCGACAATT | 0.978
44 | AGGATCAGGC | 0.913
45 | CGCCGGTCGG | 1.01
46 | CTAGGCTCCT | 1.06
47 | CAAGCGAATA | 1.19
48 | ACCGGGGGG | 0.979
49 | GCGTGGAGTC | 1.02
50 | GTTTATAGAT | 0.981
51 | ATCAGGGTCC | 1.04
52 | ACAATCCAGC | 1.05

Row | Sequence | switch fluorescence ratio
53 | CTTGACGGAA | 1.37
54 | ATCACACACG | 1.43
55 | AGTTTGGCTA | 0.989
56 | GGCCCTTCTG | 1
57 | CAGATGCGCC | 1.02
58 | CTTTCCTGAG | 1.09
59 | CACATTAAAT | 0.983
60 | AATGAGTTTC | 1
61 | GCGACTATTG | 0.976
62 | AGATTAACAC | 0.998
63 | TATATCTCC | 1.05
64 | CCCATTTCAT | 1.01
65 | TTATACCCGA | 1.07
66 | GTTAATGGTG | 0.95
67 | TACATTTATT | 1.01
68 | TTAGTCTAGG | 1.05
69 | TATGAATATG | 1
70 | GATGGTTAAA | 0.99
71 | CTGTTATGG | 1.01
72 | GGAACCGCCG | 0.995
73 | CATTATGAAT | 0.993
74 | AAGATGCCAT | 1.01
75 | CGTTACTGTG | 0.97
76 | CACGGGGAGG | 0.997
77 | ACGGATCCCA | 1
78 | ACGGTGCTT | 1.13

Row | Sequence | switch fluorescence ratio
79 | GGGGACTTCG | 1.01
80 | GCCTGCGATA | 1.48
81 | AGGTGTATTT | 1.01
82 | ATCACGGGGC | 0.95
83 | TGAGATGCAA | 1.05
84 | TGATAGGG | 0.989
85 | AGTCGTGATC | 1.05
86 | TAGGCCCTTT | 1
87 | AGTGGCGTTT | 1.05
88 | ACGGGATC | 1.08
89 | TGAGATACGT | 0.968
90 | GATTCTCATC | 0.955
91 | GGAGCTTCTT | 1.03
92 | GCCATCATCC | 0.991
93 | AGCAGCTGAG | 0.968
94 | GTGCCTGCTC | 0.991
95 | TGGGGTCTTT | 0.993
96 | GGTTGTGTTG | 0.98
97 | CAGGGTTC | 0.945
98 | GACTAAGTGG | 1.02
99 | AGAATTTTCA | 1.02
100 | CGACACTCCT | 1.39
101 | CTGGCGAACC | 1.02
102 | AAGGGGTGGC | 0.946
103 | GGACTAAACT | 0.998
104 | TTCTGGGA | 1.02

Row | Sequence | switch fluorescence ratio
105 | GAGTTCGGAT | 0.983
106 | TTCGAAGTAC | 2.23
107 | GGCTTGAGAC | 1.02
108 | TTGCTGGACA | 1.05
109 | CGTATAGGTT | 0.965
110 | TTTATGTCCT | 0.973
111 | GACCACCAAT | 1.09
112 | TTGGTCGCAA | 5.9
113 | GGGGCGATAT | 1.14
114 | GCTTTACGGG | 1
115 | GAGCCCACGC | 0.973
116 | ATCAGCTGCG | 1.01
117 | TATGCATCAA | 0.979
118 | GAACCTACGC | 1.94
119 | TCAGGGCGAC | 1.04
120 | AGAATTGCAG | 0.994
121 | TAAGGGAGCC | 1.05
122 | GAGGTAGCCG | 0.939
123 | CAGTAGGTTA | 0.997
124 | TGTGCGACAA | 1.34
125 | GCTAGTACGT | 1.04
126 | CGTTTTTACC | 0.97
127 | ATGGCTTC | 0.967
128 | GATATTGAGA | 1.02
129 | AACGAAGGCC | 0.929
130 | GATTCCACGA | 1

Row | Sequence | switch fluorescence ratio
131 | TTACCCGAGG | 1.04
132 | TACGATCACA | 1.11
133 | GAGGGGCCCT | 0.973
134 | CTGCTGGAGC | 1.06
135 | TTTGCTATCG | 0.945
136 | GGCAAACGCG | 0.979
137 | CATCGGCATG | 1.48
138 | AAGGGCTAGT | 0.958
139 | ATACTTATGC | 1.15
140 | CGGGGTACTC | 1.25
141 | TGATGTGAT | 0.969
142 | AAAATCAAAA | 1.01
143 | GCTAGCATGG | 1.04
144 | AAGTTCACTG | 1.02
145 | TCTGGTTAAC | 0.991
146 | TTCGTATGGA | 0.958
147 | CGGAATTCGT | 1.03
148 | ACCGTACAGG | 1.16
149 | GCATGTGCCG | 0.874
150 | GCAAGCGGTA | 0.943
151 | TGACGGGATA | 1.32
152 | ACTGCGAAGC | 1.04
153 | GGCCCTTGTT | 1.02
154 | TCAAAGCCTG | 0.955
155 | GATGGGTTGT | 0.994
156 | TCTAAAATAG | 1.05

Row | Sequence | switch fluorescence ratio
157 | TTCCCCGGGT | 1.61
158 | CGAGAATGAC | 1.11
159 | TAAATAGATT | 0.98
160 | ACATTAAAAG | 1.04
161 | GAAACACACG | 1.34
162 | AATCTTATGA | 0.981
163 | TTGAATTGTC | 0.896
164 | TGCTCGTCAT | 0.966
165 | GACTCGAGAT | 1.05
166 | CAATCCCAT | 1.01
167 | ACTACTATTT | 0.98
168 | ATGAGCCTGT | 0.968
169 | TGTCCTTTAC | 1.03
170 | CGGTACTACA | 1.06
171 | GGGTCTGGAA | 1.02
172 | TTCGACTTCT | 1.08
173 | GCGTCCGAT | 1.01
174 | GTGTAGGTG | 1.06
175 | GGTATCCTTT | 0.967
176 | AGATGTTGTG | 0.958
177 | CCTGGTGTTC | 1.26
178 | GGAGTACGTC | 1.02
179 | ATTAGGTT | 0.986
180 | TGCAGCTACG | 0.963
181 | TTCCGATTTA | 0.98
182 | TAATGAGGAG | 1

Row | Sequence | switch fluorescence ratio
183 | ATTTACATGC | 1.03
184 | TTACACAGCA | 1.06
185 | TACGATGTA | 1.02
186 | AAGGGAATTG | 0.991
187 | TAGGCCAGCG | 1
188 | ACAGTAACTC | 1.18
189 | TGCGTGCTTG | 0.994
190 | TCCCGTCTCA | 1.05
191 | TAGCATAGA | 0.998
192 | CGTATGGGAT | 0.966
193 | TATGCTAATA | 1.03
194 | GTCATGCGGC | 0.961
195 | CTCTTCCGT | 1.21
196 | AATATAATTA | 0.985
197 | GTATCAGGCA | 1.01
198 | TAAAACAGTA | 0.995
199 | TCAGCCAGCG | 1.06
200 | TGCCTTAAAC | 1.14
201 | TTAAAGCGCT | 0.997
